Out of some 52,000 compounds screened, about 1,700 (3.3%) were called active. Rule as the data show it: active = survival mostly below about 52% (no sharp cut-off); inactive = mostly above about 56%. This is one part of the list.
System: Wild type
Assay: S. aureus survival, RN4220 and DeltatarO strains – OD600, teichoic acid synthesis inhibitors, primary screen (AID 463173)
Settings: S. aureus RN4220 wild type/DeltatarO growth, OD600, 18 h, hits give low values, screened at 18.75 µg/mL (by protocol)

SMILES | survival
COc1ccc(S(=O)(=O)N2CCN(c3ccc(Cl)c(Cl)c3)CC2)c2ccccc12 | inactive: 148%
COC(=O)c1cc(S(=O)(=O)NCC2CCN(Cc3ccc(F)cc3)CC2)c[nH]1 | inactive: 73%
COCCNC(=O)CSc1nc2cc3c(cc2c(=O)n1CCCC(=O)NCc1ccc(OC)cc1)OCO3 | inactive: 66%
CCOc1ccc(Cn2c(-c3ccc(OCC)c(OC)c3)nc3ccccc32)cc1OC | inactive: 94%
Cc1cc(NCc2ccccc2Cl)n2cnnc2n1 | inactive: 90%
Cc1cccc(NC(=O)c2cc(-c3ccc4c(c3)OCCO4)on2)c1 | inactive: 78%
Cc1ccc(NC(=O)CSc2nc3ccccc3nc2Cc2ccccc2)c(C)c1 | inactive: 135%
Cc1ccc(CNC(=O)C2CCCCN2S(=O)(=O)c2ccc(F)cc2)cc1 (configuration not stated) | inactive: 91%
Cc1ccc(-c2nc(-c3cc4cccc(OCc5ccc(F)cc5)c4oc3=O)no2)cc1 | inactive: 96%
CC(CO)(CO)N=Cc1c(O)[nH]c(=O)[nH]c1=O | inactive: 112%
Cc1ccc(NC(=O)CSc2nc(-c3ccc(C(C)(C)C)cc3)nc3cc(=O)[nH]n23)cc1C | inactive: 91%
COc1ccc(CNC(=O)C2CCN(S(=O)(=O)c3ccc(F)cc3)CC2)cc1 | inactive: 88%
CSc1ncc(C(=O)Nc2cccc(C)c2C)c(-c2ccccc2)n1 | inactive: 82%
COC(=O)c1ccc2c(c1)N(Cc1cc(C)ccc1C)C(=O)c1ccccc1S2 | inactive: 60%
Cc1ccc(NCC(=O)N/N=C/c2ccncc2)cc1 | inactive: 105%
Cc1nc(NC2CCN(Cc3nnnn3Cc3ccc4c(c3)OCO4)CC2)[nH]c(=O)c1C | inactive: 112%
CC(CNC(=O)c1ccc(CSc2nc3ccncc3n2Cc2ccc(F)cc2)cc1)c1ccccc1 (configuration not stated) | inactive: 92%
Cc1oc(-c2ccccc2)nc1C(=O)O | inactive: 122%
CCN(c1ccccc1)S(=O)(=O)c1nnc(NC(=O)C(C)(C)C)s1 | inactive: 74%

SMILES | survival
CCN1CCc2nc3sc(C(=O)c4ccccc4)c(N)c3cc2C1 | inactive: 71%
Cc1nc2nc(NCc3cccc(Cl)c3)[nH]n2c(=O)c1Cc1ccccc1 | inactive: 85%
CCOc1ccc2nc(N3CCCC(C(=O)NCCCOC)C3)sc2c1 (configuration not stated) | inactive: 79%
COc1ccc(-c2cc3ccc(O)c(CN4CCCC(C)C4)c3oc2=O)cc1 (configuration not stated) | inactive: 127%
COC(=O)c1ccc(Cn2c(SCc3ccccc3F)nc3ccncc32)cc1 | inactive: 74%
CCOc1ccc(CCNC(=O)Cn2c(=O)c3cccn3c3ccc(F)cc32)cc1OCC | inactive: 91%
Cc1ccc(Cl)cc1-n1ncc2c(NCc3ccc(F)cc3)ncnc21 | inactive: 73%
C=CCn1c(SCC(=O)c2cccs2)nc2sc(C)cc2c1=O | inactive: 103%
COc1ccc(OCCn2c(C(C)Oc3ccccc3)nc3ccccc32)cc1 (configuration not stated) | inactive: 72%
CC1C(=O)Nc2ccc(S(=O)(=O)NCc3ccc(N(C)C)cc3)cc2NC1=O (configuration not stated) | inactive: 89%
CN(Cc1ccccc1)C(=O)c1cc2nc(-c3ccco3)cc(C(F)(F)F)n2n1 | inactive: 108%
Cc1cc(NC(=O)CC(C)C)no1 | inactive: 105%
COc1cccc(C(=O)c2cn(CC(=O)Nc3cccc(C(F)(F)F)c3)c3nc(C)ccc3c2=O)c1 | inactive: 97%
CCN(CC)S(=O)(=O)c1ccc2c(c1)nc(CN(C)C(=O)Nc1cccc(Cl)c1)n2C | inactive: 112%
COc1ccc(Cn2c(CCC(=O)Nc3ccc(C)c(C)c3)nc3cccnc32)cc1 | inactive: 93%
CCCN(CCC)C(=O)CN1C(=O)CSc2ccc(S(=O)(=O)N3CCC(C)CC3)cc21 | inactive: 89%
CC(=O)N1CCc2cc(S(=O)(=O)NC(CC(C)C)C(=O)NCCc3ccc(C)cc3)ccc21 (configuration not stated) | inactive: 75%
COc1ccc(-n2nnc(-c3nsc(NC(=O)c4cccs4)n3)c2C)cc1OC | inactive: 76%
CCS(=O)(=O)N1CC(=O)N(c2cc(C)ccc2C)C(C)(C(=O)NC2CCCCC2)C1 (configuration not stated) | inactive: 59%

SMILES | survival
Cc1ccc(Cl)cc1NC(=O)N1CCC2(CC1)Oc1ccccc1C(=O)N2Cc1ccccc1F | inactive: 127%
COc1ccc(-c2cn3c(n2)sc2cc(C(=O)NC4CCCCCC4)ccc23)cc1 | inactive: 95%
CCOC(=O)CN1C(=O)C(C)(C)Oc2ccc(C(=O)NC(C)C)cc21 | inactive: 117%
Cc1cccc(NC(=O)C(=O)NCCc2sc(-c3ccccc3)nc2C)c1C | inactive: 63%
Cc1c(Cl)cccc1NC(=O)C(CCS(C)(=O)=O)N1Cc2ccccc2C1=O (configuration not stated) | inactive: 74%
Cc1ccccc1CN(Cc1ccco1)C(=O)c1cc2ccccc2oc1=O | inactive: 97%
CC(=O)c1c(C)oc2ccc(N(C(=O)Oc3ccccc3)S(=O)(=O)c3ccccc3)cc12 | inactive: 78%
Cc1ccc(S(=O)(=O)c2c(Nc3cc(C)ccc3C)sc(C(=O)c3ccc4c(c3)OCO4)c2N)cc1 | inactive: 152%
CCCS(=O)(=O)N1CCN(S(=O)(=O)c2ccccc2)CC1 | inactive: 93%
CC(CNC(=O)c1cc(-c2ccccc2)n[nH]1)c1ccccc1 (configuration not stated) | inactive: 68%
CC1CCCN(c2c(S(=O)(=O)c3ccccc3)cnc3ccc(Cl)cc23)C1 (configuration not stated) | inactive: 121%
COc1ccc(CCN2C(=O)N(c3ccc(C)cc3)C(=O)C2CC(=O)Nc2ccc(F)cc2)cc1 (configuration not stated) | inactive: 76%
Cc1nn(C(=O)COc2ccccc2Br)c(C)c1Sc1ccccc1 | inactive: 57%
Nc1cc(=O)nc(SCC(=O)Nc2ccc(F)cc2)n1-c1cccc(Cl)c1 | inactive: 143%
Cc1cccc(N2CCN(C(=O)c3c(C)oc4ncnc(N5CCOCC5)c34)CC2)c1C | inactive: 78%
COc1ccc(C)cc1NC(=O)c1cc(S(=O)(=O)N2CCC(C)CC2)cn1C | inactive: 45%
CCc1ccc(NC(=O)C(NS(=O)(=O)c2cccc3nsnc23)c2ccccc2)cc1 (configuration not stated) | inactive: 71%
COc1ccc(CN2C(=O)N(c3ccc(F)cc3)C(=O)C2CC(=O)Nc2cc(OC)cc(OC)c2)cc1 (configuration not stated) | inactive: 55%
Cc1cccc(NC(=O)c2sc3nc(-c4ccccc4)cn3c2C)c1C | inactive: 120%

From PubChem BioAssay AID463173 (ICCB-Longwood Screening Facility, Harvard Medical School, 2010)
